Measurements taken from PubChem BioAssay AID1458 (National Center for Advancing Translational Sciences (NCATS), 2008).
Hit rate of the full screen: of about 210,000 compounds, about 5,900 (2.8%) were called active. This list was built around the results that the source calls inconclusive (neither active nor inactive); the mix of calls is not that of the screen. The call rests on the fitted dose curve; in most records, active means well fitted activation curve with a large enough effect; inconclusive means small, poorly fitted or top-dose-only effect; inactive means no such curve, though single readings can be large or run the other way. Where the call is inconclusive, the potency comes from a doubtful curve fit.

Assay: qHTS Assay for Enhancers of SMN2 Splice Variant Expression; further: nearly all actives have a fitted effect of over 55% in size; on activity change, positive = activation: % of control where 0% means no effect
Settings: HEK293 SMN2-luciferase splicing reporter, luminescence, 30-36 h; activity change, positive = activation: at 46.1 µM (top of the series)
Procedure, shortened: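 HEK293 cells carry an SMN2 minigene-luciferase reporter in which exon 7 inclusion puts luciferase in frame. Cells were seeded at 2000 cells/well, attached for 10-12 hours, then exposed to compounds for 30-36 hours at 37C before ONE-Glo luminescence.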
Potency means the concentration at half of the fitted maximal effect; tags describe the fitted curve by direction and shape.

| Compound | Potency | activity change, positive = activation |
| --- | --- | --- |
| CCOc1cccc2cc(-c3csc(NC(=O)CCC(=O)N4CCC(C)CC4)n3)c(=O)oc12 | inactive |  |
| CN(C(=O)Nc1ccc(Cl)cc1Cl)[C@H]1c2cc(Br)ccc2OC[C@H]1CO | inactive |  |
| CC(=O)COc1ccc2c3c(c(=O)oc2c1C)CCCCC3 | inconclusive: 14.1 µM [activator, partial curve] |  |
| COc1ccc(-n2ncc3c(NC(C)C)ncnc32)cc1 | active: 2.82 µM |  |
| CCCC1c2ccc(C)n2CCN1C(=O)Nc1ccccc1Cl (configuration not stated) | inconclusive: 20 µM [activator, partial curve, poor fit] |  |
| N#C/C(=N\Nc1c(Cl)cccc1Cl)C(=O)NN | inconclusive: 3.55 µM [activator, full curve, poor fit] |  |
| Cc1sc(C(=O)Nc2ccc3ccccc3c2)cc1CC(=O)O | inconclusive: 12.6 µM [activator, partial curve, poor fit] |  |
| O=C(NCc1nc2ccccc2[nH]1)c1cccs1 | inconclusive: 2.82 µM [activator, partial curve, poor fit] |  |
| Cc1ccc(NC(=O)c2cccc(C(=O)OC(C)C)n2)c(Br)c1 | inactive |  |
| Cc1ccc(NC(=O)CC(C)N2CCCC2)cc1 (configuration not stated) | inconclusive: 4.47 µM [activator, single point] |  |
| O=C(NCc1cccs1)c1nc(-c2cccs2)no1 | inconclusive: 6.31 µM [activator, full curve, poor fit] |  |
| COC(=O)Nc1nc2ccc(SC(C)C)cc2[nH]1 | inconclusive: 2 µM [activator, partial curve, poor fit] |  |
| Cc1cc(C)nc(SCC(=O)n2c3c(c4ccccc42)CCCC3)n1 | inconclusive: 22.4 µM [activator, single point] |  |
| CCCSc1nnc(-c2ccccc2NC(=O)CC)c(=O)[nH]1 | inconclusive: 7.08 µM [activator, full curve, poor fit] |  |
| O=C(Nc1ccc(N2CCOCC2)c(Cl)c1)c1cccnc1 | inconclusive: 12.6 µM [activator, partial curve, poor fit] |  |
| O=C(c1ccc2ccccc2c1)c1c[nH]cc1-c1ccccc1 | inconclusive: 10 µM [activator, partial curve] |  |
| CC(C)(C)c1ccc(/C=C/C(=O)NC2=NCCS2)cc1 | inconclusive: 25.1 µM [activator, single point] |  |
| O=C(NCCSCc1ccccc1)c1ccccc1 | inconclusive: 11.2 µM [activator, single point] |  |
| Cc1ccc(-c2nn3c(C)nnc3c3ccccc23)cc1S(=O)(=O)NCc1ccccc1 | inactive |  |
| CC(C)(C)NC(=O)Nc1ccc2nccnc2c1 | inconclusive: 11.2 µM [activator, single point] |  |
| CCOC(=O)c1cc(-c2ccc(F)cc2)n(CC(=O)NCc2cccnc2)c1C | inactive |  |
| CC(=O)Nc1ccc2nc(-c3cccs3)[nH]c2c1 | inconclusive: 7.94 µM [activator, partial curve, poor fit] |  |
| CCCN(C(=O)c1ccco1)c1nnc(-c2ccncc2)s1 | inconclusive: 11.2 µM [activator, partial curve] |  |
| O=S(=O)(Nc1ccc2c(c1)nc1n2CCN(Cc2ccccc2)C1)c1ccccc1 | inconclusive: 5.62 µM [activator, single point] |  |
| O=C(Cc1cccs1)Nc1nncs1 | inconclusive: 7.08 µM [activator, partial curve, poor fit] |  |
| CC(C)(C)NC(=O)c1cccc(NC(=O)c2ccc(NC(=O)c3ccco3)cc2)c1 | inconclusive: 15.8 µM [activator, partial curve] |  |

| Compound | Potency | activity change, positive = activation |
| --- | --- | --- |
| CCOC(=O)c1sc2nc(C)nc(NCc3cccnc3)c2c1C | inactive |  |
| CC(=O)Nc1ccc(S(=O)(=O)Nc2cccc(-c3cn4c(n3)SCC4)c2)cc1 | inactive |  |
| c1cc(CSc2nnc(-c3ccc4c(c3)OCO4)o2)ccn1 | inactive |  |
| O=C(O)CN1C(=O)C2C3C=CC(C3)C2C1=O (configuration not stated) | inconclusive: 2.24 µM [activator, partial curve] |  |
| COCC(C)n1c(C)cc(C(=O)CSc2nnc(N)s2)c1C (configuration not stated) | inconclusive: 31.6 µM [activator, single point] |  |
| CCOC(=O)CC(CC(C)=O)C(=O)OCC (configuration not stated) | inactive |  |
| Nc1nc(Nc2cccc(F)c2)nc2ccccc12 | inconclusive: 20 µM [activator, single point] |  |
| Cc1cnc2ncc3sccc3c2c1 | inactive |  |
| Cc1ccc(C(=O)NC2CCCCC2)cc1 | active: 14.1 µM |  |
| CC(=O)Nc1ccc(NC(=O)c2ccc3c(c2)CCN3S(=O)(=O)c2ccc(C)cc2)cc1 | inactive |  |
| Nc1nc2ccccc2nc1N | inactive |  |
| CCOc1ccc(CN(C)C(=O)c2cccnc2SC)cc1OC | inactive |  |
| CNc1ncc(C(=O)c2ccc(F)cc2)s1 | inconclusive: 31.6 µM [activator, single point] |  |
| CCC(C)c1ccc(Nc2ncccc2C#N)cc1 (configuration not stated) | inconclusive: 15.8 µM [activator, partial curve] |  |
| COc1ccccc1NC(=O)c1cc2c(-c3ccccc3)nn(-c3ccccc3)c2s1 | inconclusive: 5.62 µM [activator, single point] |  |
| Cc1cccc(-n2c(C)cc(/C=N\NC(=O)c3cccs3)c2C)c1 | active: 2 µM |  |
| N/C(=N\OC(=O)COc1ccc(Br)cc1Cl)c1ccncc1 | active: 11.2 µM |  |
| C/C(=N\NC(=S)Nc1ccc(F)cc1)c1ccc2c(c1)OCCO2 | inactive |  |
| Cc1ccsc1C1NC(=O)c2c(sc3c2CCCC3)N1 (configuration not stated) | active: 15.8 µM |  |
| Cc1ccc2nc3ccc(N4CCCC4)nn3c(=O)c2c1 | active: 15.8 µM |  |
| COc1ccc(C(=O)/C=C/Nc2ccc([N+](=O)[O-])cc2C)c(OC)c1 | inconclusive: 12.6 µM [activator, single point] |  |
| CCOC(=O)C1CCN(C(=O)Cc2c(F)cccc2Cl)CC1 | inconclusive: 0.0355 µM [activator, full curve, poor fit] |  |
| COc1ccc(Nc2nc(N)nc(CSC(=S)N3CCOCC3)n2)cc1 | inconclusive: 35.5 µM [activator, single point] |  |
| CSc1nc2ccc(NC(=O)c3ccc(F)c(F)c3)cc2s1 | active: 15.8 µM |  |
| O=C(Nc1ccncc1)c1c(F)cccc1F |  | inconclusive: 34.3% [activator] |
| O=C(Cc1ccc(F)cc1)N/N=C/c1ccc2c(c1)OCO2 | active: 12.6 µM |  |

| Compound | Potency | activity change, positive = activation |
| --- | --- | --- |
| CNc1ccc(/C=C2\COc3ccccc3C2=O)cc1[N+](=O)[O-] | inactive |  |
| CCOC(=O)C1=NN(c2ccc([N+](=O)[O-])cc2)CC1C(=O)OC (configuration not stated) | inconclusive: 1.58 µM [activator, partial curve, poor fit] |  |
| CCOC(=O)c1ccc(NC(=O)CC2OCCN(CC)C2=O)cc1 (configuration not stated) | inconclusive: 0.355 µM [activator, partial curve, poor fit] |  |
| Cc1cccc(OCCNC(=O)c2cncc(Br)c2)c1 | inconclusive: 0.1 µM [activator, full curve, poor fit] |  |
| O=C(CSc1ccc(-c2ccccc2)nn1)Nc1ccc2c(c1)OCCO2 | active: 15.8 µM |  |
| O=C(CCSCc1ccccc1F)N1CCN(c2ccccn2)CC1 | inconclusive: 20 µM [activator, partial curve, poor fit] |  |
| Cc1onc(-c2c(F)cccc2Cl)c1C(=O)NCc1ccccn1 | inconclusive: 5.62 µM [activator, partial curve, poor fit] |  |
| CCOc1ccc(CNC(=O)c2cc3c(=O)oc4ccc(C)cc4c3s2)cc1 | inactive |  |
| FC(F)C(F)(F)C1=CC(c2ccccc2)=NCCN1 | inactive |  |
| CC(C)CCC(CC(C)O)c1n[nH]c(=S)n1-c1ccccc1 (configuration not stated) | inactive |  |
| CCOc1ccc(-c2cn3c(n2)sc2cc(C(=O)NC(C)C45CC6CC(CC(C6)C4)C5)ccc23)cc1 (configuration not stated) | inconclusive: 3.98 µM [activator, partial curve, poor fit] |  |
| Cn1nnc2cc(C(=O)N3CCCCCC3)ccc21 | inconclusive: 11.2 µM [activator, single point] |  |
| O=S(=O)(c1ccccc1)n1nc(-c2ccco2)nc1NCc1ccccc1 | inconclusive: 11.2 µM [activator, single point] |  |
| N/C(CN1CCCC1=O)=N\OC(=O)c1ccccc1Cl | inconclusive: 15.8 µM [activator, single point] |  |
| CCOc1ccc2nc(NC(=O)C3=NNC(=O)CC3)sc2c1 | inconclusive: 35.5 µM [activator, single point] |  |
| COc1cc(CC(=O)Nc2nc(C)cs2)cc(OC)c1OC | inactive |  |
| CC(C)CCN1CN(S(=O)(=O)c2cccs2)c2nc3ccccc3nc21 | inactive |  |
| CN(C)c1ccc(-c2ccccc2)nn1 | active: 15.8 µM |  |
| COC(=O)c1ccc(C2N=C(c3cccs3)CC(c3ccccc3O)N2)cc1 (configuration not stated) | inactive |  |
| O=C(COc1ccccc1Cl)c1ccc[nH]1 | inconclusive: 35.5 µM [activator, single point] |  |
| CCCC(=O)Nc1sc2c(c1C#N)CCCCC2 | active: 11.2 µM |  |
| C=CCn1c(=O)c2ccc(C(=O)NCc3ccccc3)cc2n(Cc2cccc(Cl)c2)c1=O | inconclusive: 0.0355 µM [activator, full curve] |  |
| Cc1nn(C(=O)c2cccs2)c(N)c1-c1ccccc1 | inconclusive: 35.5 µM [activator, single point] |  |
| Cc1c(/C(O)=C2/C(=O)C(=O)N(CCN3CCOCC3)C2c2cccs2)cnn1-c1ccccc1 (configuration not stated) | inconclusive: 0.141 µM [activator, full curve, poor fit] |  |
| Cc1cc2cc(C(c3nnnn3Cc3ccccc3)N3CCc4ccccc43)c(=O)[nH]c2cc1C (configuration not stated) | inconclusive: 8.91 µM [activator, partial curve] |  |
